Data reported in PubChem BioAssay AID1508623 (National Center for Advancing Translational Sciences (NCATS), 2021).
The campaign covered roughly 48,000 compounds. About 450 (0.94%) were called active. Roughly 19% stayed inconclusive and do not appear here. Calls follow the shape of the dose curve; as a rule, active = well fitted inhibition curve with a large enough effect; inconclusive = small, poorly fitted or top-dose-only effect; inactive = no such curve, though single readings can be large or run the other way. The list shows a part of the results.

Assay: Primary qHTS for Identification of Small Molecule Inhibitors of Huntingtin Promoter Activity; also: nearly all actives have a fitted effect of over 50% in size
Settings: HEK293 HTT promoter firefly luciferase reporter (activity 0% = vehicle and -100% = no light), 24 h; series mostly up to 57.5 µM; activity change, negative = inhibition: at the top concentration
Procedure, shortened: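 Firefly luciferase readout (Dual-Glo, 10 min RT) after 24 h, 37 °C compound exposure (final up to 57.5 uM) of HEK293 reporter cells cultured 24 h beforehand; PTC124 at 50 uM final as control inhibitor; activity scaled vehicle 0%, zero RLU -100%.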

Activity change, negative = inhibition, inactive:
COC(=O)c1ccc(Cl)cc1NC(=O)NCCc1c(C)nn(C)c1C -0.375%
CC(C)c1ccc(NC(=O)Cn2c(=O)n(CC3CCC(C(=O)NCCc4ccccc4)CC3)c(=O)c3ccccc32)cc1 (centres undefined) 1.07%
Cc1ccc(-n2c(=O)c3cccnc3n2CC(=O)Nc2cc(C)cc(C)c2)cc1 -24.4%
COc1ccccc1CNC(=O)Cn1c(=O)nc(-c2ccccc2F)c2cc(Cl)ccc21 -3.71%
CC(C)(C)C1CCc2c(sc(NC(=O)Cn3nnc(-c4ccccc4Cl)n3)c2C#N)C1 (centres undefined) -1.39%
Cc1cccc(N2CCN(C(=O)CS(=O)(=O)c3cccc4nsnc34)CC2)c1C -6.74%
CCOC(=O)c1c(C)[nH]c(C)c1S(=O)(=O)N1CCC(C(=O)Nc2cc(C)ccn2)CC1 -4.61%
Cc1ccc(Cl)cc1N1CCN(C(=O)C2CCC(CNS(=O)(=O)c3cccs3)CC2)CC1 (centres undefined) 0%
Cc1ccc(CNc2ccc(-c3nc(-c4ccncc4)no3)cc2[N+](=O)[O-])cc1 -4.89%
Cc1ccc(-c2nc(S(=O)(=O)c3ccccc3)c(N3CCN(c4ccccc4)CC3)o2)cc1 -3.69%
Cc1ccc2nc(COc3ccccc3NC(=O)COc3ccc(F)cc3)cc(=O)n2c1 -4.55%
CCc1ccccc1NS(=O)(=O)c1ccc2[nH]cc(C(=O)N(CC(C)C)CC(C)C)c(=O)c2c1 -4.76%
CCc1ccccc1N(CC)C(=O)c1c(C)oc2ncn(C)c(=O)c12 0%
O=C(Nc1ccccc1C(=O)OCc1cc(=O)n2c3c(sc2n1)CCCC3)c1ccc(F)cc1 -19.5%
COc1ccc(NC(=O)C2CCN(S(=O)(=O)c3ccc4c(c3)CCCC(=O)N4)CC2)cc1OC -3.86%
Cc1cccc(C(C)C)c1NC(=O)Cn1c(=O)oc2cc(S(=O)(=O)N3CCCC3)ccc21 -42.5%
CCc1ccc2nc(N(CCN(CC)CC)C(=O)c3cccs3)sc2c1 12.9%
COc1cccc(C(=O)Nc2nc3nc(-c4ccccc4)cc(=O)n3[nH]2)c1 -12.4%
O=C1c2oc3ccccc3c(=O)c2C(c2cccc(O)c2)N1c1nncs1 (centres undefined) -11.4%
CCOC(=O)c1c(-c2ccc(C)cc2)csc1NC(=O)c1cc(=O)c2cc(C)ccc2o1 13.6%
O=C(Cn1c(=O)nc(-c2ccccc2)c2ccccc21)NCCc1ccccc1 -2.63%
CC(=O)c1ccc(NC(=O)CN2C(=O)CN(C)C(=O)c3ccccc32)cc1 6.97%
COc1cccc(CNC(=O)C2=C(C)C(=O)OC23CCN(C(C)=O)CC3)c1OC -7.15%
COc1ccc(-c2oc3ncn4nc(COc5cccc(C)c5C)nc4c3c2-c2ccc(OC)cc2)cc1 2.26%
COc1cc(Nc2nc(SCc3ccc(Cl)cc3)nc3ccccc23)cc(OC)c1 -24.5%
CCC(C(=O)NCc1cc(OC)ccc1OC)n1nc(C)c2sc3ccccc3c2c1=O (centres undefined) -13.1%
COc1cccc(C(=O)N2CCC(C(=O)Nc3cccc(Cl)c3)CC2)c1 -21.2%
CN(C)c1cccc(C(=O)N2CCC(c3c[nH]c4ccccc34)(c3c[nH]c4ccccc34)CC2)c1 -11.3%
O=C(COCc1cc(-c2cccs2)on1)N1CCN(c2ccccc2)CC1 -24.3%
COc1ccccc1C(=O)Nc1ccc2nc(SCCOc3ccccc3C)sc2c1 -11.7%
CC(C)c1ccc(N2C(=O)CSC23C(=O)N(Cc2cccc(F)c2)c2ccccc23)cc1 (centres undefined) -25.3%
COc1ccc(OC)c(CNC(=O)C2CCCN(c3ncnc4onc(-c5ccc(F)cc5)c34)C2)c1 (centres undefined) -4.85%
Fc1ccc(NCc2nnc3n2CCCCC3)cc1Cl 11%
COc1ccccc1CNc1nc2c(S(=O)(=O)c3ccc(C)c(C)c3)nnn2c2ccc(Cl)cc12 9.11%
COc1ccc(NC(=O)C(NS(=O)(=O)c2cccc3nsnc23)C(C)C)cc1 (centres undefined) -10.7% [at 11.5 µM]
CCOC(=O)c1c(NC(=O)c2cc(-c3ccc(Br)cc3)on2)sc(C(C)=O)c1C -8.29% [at 11.5 µM]
COc1ccc(NC(=O)c2cc3ccccc3o2)c(OC)c1 97.5%
O=C(c1ccc(F)cc1)c1cn(Cc2ccccc2)c2cc3c(cc2c1=O)OCO3 11.2%
COc1ccc(C2=CC(c3cc(Br)ccc3F)n3c(nc4ccccc43)N2)cc1 (centres undefined) 64.9% [at 11.5 µM]
CC1CCCN(c2cc3c(cc2F)c(=O)c(S(=O)(=O)c2cccc(Cl)c2)cn3Cc2ccccc2)C1 (centres undefined) -7.78%
O=C(COc1ccccc1Cl)Nc1ccc(-c2nc3ccccc3s2)cc1 89%
CC(C)NC(=O)c1ccc(Cn2c(SCc3ccc(F)cc3)nc3cccnc32)cc1 -10.6%
COCc1nnc(NC(=O)c2cc(OC)c(OC)c(OC)c2)s1 1.82%
Cc1ccc(NC(=O)C2CCCN(S(=O)(=O)c3c(C)n[nH]c3C)C2)c(C)c1 (centres undefined) -14.9%
CCC(C(=O)Nc1cc(C)ccc1C)n1c(=O)c(C(F)(F)F)nc2ccccc21 (centres undefined) -28.6%
COc1cccc(CNS(=O)(=O)c2cnc(N)nc2)c1 -3.97%
Cc1cc(C)n(-c2nc(C)c(C)c(=O)n2CC(=O)Nc2ccc([N+](=O)[O-])cc2)n1 -20.8%
COc1cc(OC)cc(C(=O)Nc2ccc(-c3nc4ccccc4s3)cc2C)c1 -6.09%
COCC(=O)n1nc(-c2ccco2)nc1NCc1ccccc1Cl 48.9%
Nc1nc2c(ncn2COC(CO)CO)c(=O)[nH]1 6.36%
C=CCc1cccc2cc(-c3nc4ccc(C)cc4[nH]3)c(=O)oc12 70.9%
C[n+]1c2cc(N)ccc2cc2ccc(N)cc21 (tested in a mixture with another compound) -28.8%
COc1ccccc1CNC(=O)CCc1c(C)c2cc3c(C)c(C)oc3cc2oc1=O 6.38%
COc1ccc(CCNC(=O)c2ccc3c(c2)N(Cc2ccc(F)cc2)C(=O)c2ccccc2S3(=O)=O)cc1OC 8.86%
Cc1c(C(=O)Nc2cccc(C(F)(F)F)c2)sc2nc[nH]c(=O)c12 -10.4%
Cc1csc(-c2nnc(Nc3ccc(Oc4ncccc4-c4ccnc(N)n4)cc3)c3ccccc23)c1 -26.7%
CCOC(=O)c1ccc(NC(=O)CCCn2c(=O)c3cccn3c3ccccc32)cc1 6.94%
COc1ccc(NC(=O)c2ccc(NC(=O)N3CCSc4ncccc43)cc2)cc1 -21.9%
COCCn1c(CNC(=O)c2cccc(C)c2)nc2cccnc21 3.67%
